# In paper PMC6919601, “Identification of Plasmodium dipeptidyl aminopeptidase allosteric inhibitors by high throughput screening” (PLoS ONE, 2019):
# Screen size: about 110,000 compounds; about 230 (0.21%) showed an effect of 50% or more. Some of the results follow.
# Molecular target: DPAP1 (Plasmodium falciparum, UniProt Q8IIJ9)
# Experiment: primary screen, percent inhibition; read by cleavage of a fluorogenic dipeptide substrate; higher = more effect of the substance
# Design: species or system P. falciparum D10 trophozoite lysates; single well
# 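Note: 30 min substrate incubation versus DMSO and 10 µM JCP410 controls.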
# DPAP1, sequence (Q8IIJ9 whole entry, looked up): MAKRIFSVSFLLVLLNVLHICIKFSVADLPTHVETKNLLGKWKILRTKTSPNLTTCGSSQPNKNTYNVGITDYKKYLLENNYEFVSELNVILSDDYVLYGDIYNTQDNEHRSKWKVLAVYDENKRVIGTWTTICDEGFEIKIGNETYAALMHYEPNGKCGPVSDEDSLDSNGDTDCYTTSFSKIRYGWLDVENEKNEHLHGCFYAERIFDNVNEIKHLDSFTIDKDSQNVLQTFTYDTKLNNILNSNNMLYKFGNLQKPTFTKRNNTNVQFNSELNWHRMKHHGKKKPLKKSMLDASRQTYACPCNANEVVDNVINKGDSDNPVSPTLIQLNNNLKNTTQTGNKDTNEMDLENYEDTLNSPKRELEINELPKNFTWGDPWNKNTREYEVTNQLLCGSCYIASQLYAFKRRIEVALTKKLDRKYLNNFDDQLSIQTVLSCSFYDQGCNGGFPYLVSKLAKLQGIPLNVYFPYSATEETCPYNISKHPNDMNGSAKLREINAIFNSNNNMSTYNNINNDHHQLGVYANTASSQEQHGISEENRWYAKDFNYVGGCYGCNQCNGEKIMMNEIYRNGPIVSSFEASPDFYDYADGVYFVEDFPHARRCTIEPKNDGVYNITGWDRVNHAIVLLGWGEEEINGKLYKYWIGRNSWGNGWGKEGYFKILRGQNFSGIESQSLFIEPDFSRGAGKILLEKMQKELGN
row,SMILES,% Inhibition @ 10 uM [%]
1,CCC(Oc1ccccc1)C(=O)Nc1nnc(S(=O)(=O)N(C)Cc2ccccc2)s1 (stereo not shown),3.36
2,COc1ccc(S(=O)(=O)NCCOc2ccccc2)cc1-n1cnnn1,-0.403
3,CCN(CC)CCNC(=O)CS(=O)Cc1nc(-c2ccc(C)cc2)oc1C (stereo not shown),2.37
4,O=C(CSc1nn2cnnc2s1)N(C1CCCCC1)C1CCCCC1,-5.41
5,Cn1ncc(C(=O)N2CCN(C3CCCCC3)CC2)c1C1CCN(C(=O)OC(C)(C)C)CC1,3.44
6,Cc1cc(C(=O)N2CCC(Cc3ccccc3)CC2)on1,-3.45
7,CCCc1cc(O)n2nc(N3C(=O)c4ccccc4C3=O)nc2n1,0.401
8,N#CC1=C(N)Oc2cc(N)ccc2C1c1ccc(F)cc1F (stereo not shown),0.605
9,O=C(Nc1nc(-c2ccc(Br)cc2)cs1)c1ccc2c(c1)OCO2,-3.71
10,Cc1c(Br)c(C(F)(F)F)nn1CC(=O)NCc1ccc(Cl)cc1,-4.84
11,C(=C\CSc1nc[nH]n1)/CSc1nc[nH]n1,2.03
12,CC(C)(C)c1ccc(OCC(=O)Nc2ccc(S(=O)(=O)N3CCOCC3)cc2)cc1,-3.95
13,Cc1cc(C)n2c(SCc3ccc(C(=O)c4ccccc4)cc3)nnc2n1,3.47
14,CCN(CC)C(=O)/C(=C/c1ccco1)NC(=O)c1ccc(Cl)cc1Cl,0.317
15,CN1CCc2c1nc1ccccc1c2NC(=O)CN1CCCC1,-2.51
16,COc1cccc(C(=O)Nc2ccc(Br)cc2C(=O)O)c1,2.79
17,Cc1cc(NC(=O)c2cc3ccccc3o2)no1,-0.403
18,COc1ccc(C)cc1N(CC(=O)NC(C)C)S(=O)(=O)c1ccccc1,-4.13
19,COc1ccc(-n2cnc3cc(NCc4ccccc4O)ccc32)cc1,1.93
20,CCOC(=O)c1sc(NC(=O)c2cc(=O)c3cc(C)c(C)cc3o2)c(C(=O)OCC)c1C,1.9
21,Cc1n[nH]c(C)c1CCc1nc2c3ccccc3nc(NCCc3ccccc3)n2n1,-6.07
22,Cc1cc(C)c(NC(=O)C2CCCN2CCC(C)C)c(C)c1 (stereo not shown),2.58
23,COc1ccc(OC)c(C2C3=C(O)CC(C)(C)CC3=NC(C)=C2C(=O)Nc2c(F)cccc2F)c1 (stereo not shown),-3.46
24,O=C(Cn1ncc2c3ccccc3n(Cc3ccccc3)c2c1=O)N1CCc2ccccc2C1,-1.58
25,O=C(C1CC1)N1CCCN(C(=O)C2CC2)CC1,0.389

row,SMILES,% Inhibition @ 10 uM [%]
1,CC1CCCCC1N(C)C1CCN(C(=O)CNC(=O)/C=C/c2c(Cl)cccc2Cl)CC1 (stereo not shown),-1.05
2,COc1ccc2c(CNC3CCC(C)CC3)c(C(=O)O)[nH]c2c1 (stereo not shown),-4.76
3,Cn1c(=O)c2nc(-c3ccccc3O)[nH]c2n(C)c1=O,-5.2
4,COc1ccc2c3c([nH]c2c1)C(CCc1ccccc1)NCC3 (stereo not shown),2.65
5,Cc1sc2c(c1C)CSCC2=O,-1.57
6,COc1ccc(/C=C/C(=O)c2ccc(OC)cc2)cc1,3.34
7,CC(=O)c1c(O)cc(C(C)(C)C)n(-c2ccccc2)c1=O,-2.45
8,COc1ccccc1NC(=O)c1ccc(NC(=O)C(C)C)cc1,0.316
9,CCCNC(=O)c1nnc(Cc2cccc(F)c2)o1,-3.18
10,N/C(=N\c1ccccc1)Nc1nc(O)cc(CSc2ccc(Cl)cc2)n1,-8.41
11,Cc1cc(Br)ccc1NC(=O)c1ccc(F)cc1,-2.51
12,CC(=O)NS(=O)(=O)c1ccc(NC(=O)COc2ccc(Cl)cc2)cc1,0.245
13,COC(=O)c1cnn2c1NCN(Cc1ccccc1)C2,-2.88
14,COc1cccc(C(=O)NC2CCCCCC2)c1,-0.69
15,CCOc1ccc(N2C(=O)CC(N3CCC(C)CC3)C2=O)cc1 (stereo not shown),-0.988
16,CCc1ccc(CNCc2c(C(=O)O)[nH]c3cc(C)ccc23)cc1,1.8
17,CCCCC1CCC(C(=O)N(Cc2cccc(F)c2)C2CCS(=O)(=O)C2)CC1 (stereo not shown),6.67
18,CCc1nc(=O)c2c(COC)cc(C)nc2n1Cc1ccccc1,0.883
19,CCOC(=O)C1=C(N)Oc2ccc3ccccc3c2C1c1ccc(Br)cc1 (stereo not shown),1.26
20,CCOc1ccc(/C=C2\N=C(c3ccc(OC)cc3)OC2=O)cc1,3.58
21,Cc1ccnc2c(NCN3C(=O)C4CC=C(Cl)CC4C3=O)cccc12 (stereo not shown),2.7
22,COc1ccc(CNC(=O)C2CCCN(S(=O)(=O)N3CCC4(CC3)OCCO4)C2)cc1 (stereo not shown),-4.37
23,O=C(Nc1ccc(S(=O)(=O)NCCc2ccccc2)cc1)C1CC1,1.27
24,OC1CCCN(Cc2c(F)cccc2F)C1 (stereo not shown),-3.5
25,C/C(=C\c1ccccc1)CN1CCN(Cc2ccccc2)CC1,1.74

row,SMILES,% Inhibition @ 10 uM [%]
1,COc1ccc(S(=O)(=O)N2CC=C(C(=O)Nc3nccs3)CC2)cc1,-6.95
2,CCC(=O)N1CCN(C(=O)CC)C1c1ccccc1,-7.18
3,Cc1cccc(N2CCN(C(=O)c3cc(C)oc3C)CC2C)c1 (stereo not shown),2.63
4,Cn1cc(C[C@H](NC(=O)c2ccc(-c3ccccc3Cl)cc2)C(=O)NCC#N)c2ccccc21,-12.7
5,Cc1ccc2c(c1Br)C1(C(=O)N2)C(C#N)=C(N)Oc2[nH]nc(-c3ccc(F)cc3)c21 (stereo not shown),0.777
6,COc1ccccc1CNC(=O)c1cccc(C)c1,5.35
7,CC(=O)c1c(N2CCCC2)nc(=O)n(-c2ccccc2)c1C,1.27
8,Cc1cc(C(=O)N2CCC3(CC2)OCCO3)c2c(C)nn(-c3ccccc3Cl)c2n1,0.44
9,c1ccc2c(c1)CCOC2CNCC1COc2ccccc2O1 (stereo not shown),3.56
10,CC1(C)C(C(=O)N2CCN(C(=O)c3ccccc3)CC2)C1(C)C,7
11,COc1ccc(C(=O)Nc2c(-c3ccc(F)cc3)nc3cc(C)ccn23)cc1,-3.48
12,Cc1cc(C)nc(NC(=O)C(C)Oc2ccc(Cl)cc2Cl)c1 (stereo not shown),2.03
13,CCN(CC)S(=O)(=O)c1ccc(OC)c(OC)c1,3.51
14,CC(C)CSC(CC(=O)O)C(=O)O (stereo not shown),-3.48
15,Cc1cc(C)c(C)c(S(=O)(=O)NCC(=O)Nc2ccc(F)cc2)c1C,0.145
16,CN1C(=O)c2ccccc2C(C(=O)NCCCN2CCOCC2)C1c1c[nH]c2ccccc12 (stereo not shown),5.19
17,Nc1nnc(SCC(=O)N2CCc3ccccc3C2)s1,4.66
18,O=c1oc2ccccc2c(O)c1/C=N/c1ccccn1,7.75
19,CC(CNC(=O)c1ccc2c(c1)OCO2)NC(=O)c1ccc2c(c1)OCO2 (stereo not shown),-5.6
20,CC1CC(C)CN(C(=O)c2cc3c(=O)oc4ccccc4c3s2)C1 (stereo not shown),3.54
21,Cc1cc(C(=O)CN2CCN(C)CC2)c(C)n1-c1ccc(-c2ccccc2)cc1,-3.04
22,Cc1sc(NC(=O)c2ccc(Br)o2)c(C(N)=O)c1C,9.37
23,CCCC[C@H](NC(=O)C(Cc1c(F)cccc1F)NC(=O)c1ccc(-c2ccccc2Cl)cc1)C(=O)c1nnc(-c2ccncc2)o1 (stereo partly shown),4.33
24,O=C(NC1CCCCCC1)C1c2ccccc2C(=O)N1Cc1ccccc1 (stereo not shown),1.16
25,COc1ccc(S(=O)(=O)NCc2ccc(C(=O)NCCc3ccc(Cl)cc3)cc2)cc1,-9.18

row,SMILES,% Inhibition @ 10 uM [%]
1,OC1CCN(Cc2c[nH]c3ccccc23)CC1,1.48
2,Cc1c2cnn(CC(=O)NCCCN3CCOCC3)c(=O)c2c(C)n1Cc1ccc(F)cc1,-5.81
3,Cc1ccc(NC(=O)CCN2C(=O)c3ccccc3C2=O)c(Br)c1,6.24
4,COc1cccc(C2C3CC(C(C)(C)C)CC=C3C(C#N)=C(N)C2(C#N)C#N)c1O (stereo not shown),2.8
5,O=C(CCc1ccccc1)n1nc(-c2ccco2)nc1NCc1ccc(Cl)cc1,0.248
6,CCOc1ccc(OCC)c(C2C(C#N)=C(N)Oc3c2c(C)nn3-c2ccccc2)c1 (stereo not shown),1.02
7,CCOCCCNC(=O)/C(C#N)=C/c1c(Oc2cccc(C)c2)nc2ccccn2c1=O,4.06
8,O=C(Nc1ccc(F)cc1)C1CCC(N2C(=O)c3ccccc3C2=O)CC1 (stereo not shown),-2.92
9,Cc1nc(-n2nnc3cc(C)c(C)cc32)c2c3c(sc2n1)CCC3,0.147
10,CCOc1ccccc1C(=O)Nc1nc(-c2ccccc2)c(C)s1,-1.12
11,N#CCNC(=O)[C@H](CSCc1ccccc1)NC(=O)c1cccc(O)c1,-0.214
12,O=C(O)Cc1sc(Nc2ccccn2)nc1-c1ccccc1,-2.91
13,COc1cc(C2C(C#N)=C(N)Oc3c2c(C)nn3-c2ccccc2)cc(OC)c1O (stereo not shown),5.48
14,O=C(Nc1ccccc1C(F)(F)F)c1cccc(Cl)c1,-5.2
15,COc1ccc(-c2nc(CS(=O)CC(=O)N3CCOCC3)c(C)o2)cc1 (stereo not shown),2.37
16,Fc1cccc(Cl)c1CN1CCN(c2ncccn2)CC1,-4.95
17,COC(=O)c1cc2oc(C)cc2n1CC(=O)N1CC(C)CC(C)C1 (stereo not shown),-6.59
18,CC1CN(Cc2nc3c(c(=O)n(C)c(=O)n3C)n2Cc2c(F)cccc2Cl)CC(C)O1 (stereo not shown),-0.719
19,COc1cc(-c2nc(O)c3c4c(sc3n2)CCCCCC4)ccc1OCC#N,-11.2
20,COc1ccc(C(=O)/C=C/c2ccc(SC)cc2)c(OC)c1,0.912
21,CC1=C(c2ccc(C)cc2)S(=O)(=O)N=C1N1CCN(c2ccccn2)CC1,2.27
22,COc1ccc(CC(=O)Nc2c(-c3ccccc3)nc3cc(C)ccn23)cc1OC,-5
23,CSc1ncc(C(=O)NCCCc2ccccc2)c(C)n1,-2.3
24,CC(O)CNC(=O)C12CC3CC(CC(C3)C1)C2 (stereo not shown),-3.46
25,CCOC(=O)N1CCN(C(=O)CSc2nc3c(c(=O)n2Cc2ccccc2)SCC3)CC1,-3.43
